Some of the results follow.
What was measured:
[1] = tested on: HSkMC (human skeletal muscle cells); test: cytotoxicity call (relative viability < 0.9); details: 10 µM
[2] = tested on: HepG2; test: cytotoxicity call (relative viability < 0.9); details: 10 µM
[3] = tested on: S. aureus RN4220; test: growth inhibition call (relative growth <= 0.2); details: 50 µM

| SMILES | cytotoxicity call [1] | cytotoxicity call [2] | growth inhibition call [3] |
| --- | --- | --- | --- |
| NCCCC[C@@H]1NC(=O)[C@H](CCC(=O)O)NC(=O)c2cc([N+](=O)[O-])ccc2OCC[C@@H](C(=O)NCC(=O)O)NC1=O | inactive | inactive | inactive |
| COc1cc(C(=O)OCCN2CCN(CCOC(=O)c3cc(OC)c(OC)c(OC)c3)CC2)cc(OC)c1OC | inactive | inactive | inactive |
| N#C[C@H]1N[C@@H](CO)[C@@H]1c1ccccc1 | inactive | inactive | inactive |
| CC[C@@H](C)c1ccc(NC(=O)c2cc3ccccc3o2)cc1 | inactive | inactive | inactive |
| C[C@H]1CCc2[nH]c3ccccc3c2C1 | inactive | active | inactive |
| COc1ccc([Si](C)(C)[C@H]2[C@H](CC(=O)N(CCO)Cc3ccccc3)O[C@@]3(C(=O)N(Cc4ccc(N5CCOC5=O)cc4)c4ccccc43)[C@@H]2C)cc1 | inactive | inactive | inactive |
| C[C@H](CO)N1C[C@H](C)[C@@H](CN(C)Cc2ccccc2)Oc2ccc(NC(=O)Nc3ccc(C(F)(F)F)cc3)cc2C1=O | active | active | inactive |
| Cc1ccsc1[C@@H](O)CN | inactive | inactive | inactive |
| COc1ccc(S(=O)(=O)N(C)C[C@@H]2Oc3c(NS(=O)(=O)c4ccc(C)cc4)cccc3C(=O)N([C@@H](C)CO)C[C@@H]2C)cc1 | inactive | inactive | inactive |
| COc1cccc2c1C(=O)c1c(O)c3c(c(O)c1C2=O)C[C@@](O)(C(=O)CO)C[C@@H]3O[C@H]1C[C@H](N)[C@@H](O)[C@H](C)O1 | inactive | active | active |
| Cc1ccc(S(=O)(=O)Nc2ccc3c(c2)C(=O)N([C@@H](C)CO)C[C@H](C)[C@H](CN(C)C(=O)Nc2ccc(C(F)(F)F)cc2)OCCCC[C@H](C)O3)cc1 | inactive | inactive | inactive |
| COc1ccc(CN(C)C[C@H]2OCCCC[C@@H](C)Oc3ccc(NC(=O)Nc4ccc5c(c4)OCO5)cc3C(=O)N([C@H](C)CO)C[C@H]2C)cc1 | inactive | active | inactive |
| C[C@H]1CN([C@@H](C)CO)S(=O)(=O)c2ccc(C#Cc3cccnc3)cc2O[C@H]1CN(C)C(=O)CN(C)C | inactive | inactive | inactive |
| C[C@H](CO)N1C[C@H](C)[C@@H](CN(C)S(=O)(=O)c2ccc(Cl)cc2)Oc2c(NC(=O)C3CC3)cccc2C1=O | inactive | inactive | inactive |
| C[C@H]1CCCCO[C@@H](CN(C)S(=O)(=O)c2cn(C)cn2)[C@@H](C)CN([C@@H](C)CO)C(=O)c2cc(NC(=O)Nc3ccc(C(F)(F)F)cc3)ccc2O1 | active | active | inactive |
| C[C@@H]1CCCCO[C@@H](CN(C)Cc2ccc(C(=O)O)cc2)[C@H](C)CN([C@@H](C)CO)C(=O)c2cc(NC(=O)Nc3cccc4ccccc34)ccc2O1 | inactive | inactive | inactive |

| SMILES | cytotoxicity call [1] | cytotoxicity call [2] | growth inhibition call [3] |
| --- | --- | --- | --- |
| COc1cccc(C#Cc2ccc3c(c2)O[C@@H](CN(C)C(=O)c2ccccn2)[C@H](C)CN([C@@H](C)CO)S3(=O)=O)c1 | inactive | inactive | inactive |
| COc1ccc(CNC(=O)C[C@@H]2CC[C@H]3[C@H](COc4ccc(NC(=O)C(C)C)cc4C(=O)N3C)O2)cc1 | inactive | inactive | inactive |
| CN(C)CCN1CCN(C)C2(CCN(S(=O)(=O)C3CC3)CC2)C1=O | inactive | inactive | inactive |
| CCC(=O)N1C[C@]2(C1)CN([C@H](CO)c1c2c2ccc(cc2n1C)OC)C(=O)CN1CCOCC1 | inactive | inactive | inactive |
| O=C(O)[C@]1(O)C[C@H](O)[C@@H](O)[C@@H](O)C1 | inactive | inactive | inactive |
| COc1ccc(-c2csc(C(C#N)=C3CCCCC3)n2)cc1 | inactive | inactive | inactive |
| C[C@@H]1CN([C@@H](C)CO)C(=O)c2cc(NC(=O)C3CCCCC3)ccc2O[C@@H](C)CCCCO[C@@H]1CN(C)C(=O)C1CCCCC1 | inactive | inactive | inactive |
| CCO[C@H]1OC(C(=O)N2CCOCC2)=C[C@@H](c2coc3ccccc3c2=O)[C@@H]1CCCOC(=O)NCCCCCC(=O)NO | inactive | inactive | inactive |
| C[C@H](CO)N1C[C@H](C)[C@H](CN(C)C(=O)Nc2ccc(F)cc2)Oc2ccc(NC(=O)Nc3ccc(C(F)(F)F)cc3)cc2C1=O | inactive | inactive | inactive |
| C[C@H](CO)N1C[C@H](C)[C@@H](CN(C)Cc2ccc3c(c2)OCO3)Oc2c(NS(C)(=O)=O)cccc2C1=O | inactive | inactive | inactive |
| C[C@@H]1CCCCO[C@@H](CN(C)Cc2ccc(Cl)c(Cl)c2)[C@H](C)CN([C@H](C)CO)C(=O)c2cc(N(C)C)ccc2O1 | inactive | active | inactive |
| CC[N+](C)(CC)CCOC(=O)C(O)(c1ccccc1)C1CCCCC1.[Br-] (stereo unspecified) | inactive | inactive | inactive |
| COCC#Cc1cnc2c(c1)C(=O)N([C@H](C)CO)C[C@@H](C)[C@H](CN(C)C(=O)Nc1ccc(OC)cc1)O2 | inactive | inactive | inactive |
| C=CCOC(=O)[C@H]1[C@@H]2C(=O)O[C@@H](c3ccccc3)[C@@H](c3ccccc3)N2[C@@H](c2ccc(OCCOC(=O)[C@H]3C[C@H]4C(=O)N[C@@H](CC(C)C)C(=O)N4[C@H]3c3cccc(OCCO)c3)cc2)[C@]12C(=O)Nc1ccc(I)cc12 | inactive | inactive | inactive |
| C[C@@H]1CCCCO[C@@H](CN(C)S(=O)(=O)c2ccc(F)cc2)[C@@H](C)CN([C@H](C)CO)C(=O)c2cc(NC(=O)Cc3ccccc3)ccc2O1 | inactive | inactive | inactive |
| COc1cc(CO)cc(I)c1O[C@H]1C=C(C(=O)NCCO)C[C@@H](NC2CCCCCC2)[C@@H]1O | inactive | active | inactive |
